Laboratory results taken from the supplement of paper PMC2702839.
Where a name gives a salt, the structure may show the parent alone. This is one part of the list.

tested on: Schistosoma mansoni schistosomula; assay: phenotypic hit in primary schistosomula screen (any phenotype vs DMSO control) (binary (1 = hit, 0 = no phenotype)); higher = active (phenotype induced); settings: 1 µM; time (d): 7

Phenotypic hit, inactive:
COc1ccc2cc(CCC(C)=O)ccc2c1 [nabumetone] 0
COc1cc2c(cc1OC)C1C(=O)c3c(OC)cc4c(c3OC1CO2)CCC(C)(C)O4 (stereo not drawn) [dihydro-alpha-toxicarol methyl ether] 0
CCCCCC(C)N (stereo not given) [tuaminoheptane sulfate] 0
O=C(CCCN1CC=C(n2c(=O)[nH]c3ccccc32)CC1)c1ccc(F)cc1 [droperidol] 0
CCN(CC)CCNC(=O)c1cc(S(C)(=O)=O)ccc1OC [tiapride hydrochloride] 0
CC1(C)C(=O)CC[C@@]2(C)C1C[C@@H](O)[C@@]1(C)C3=CC(=O)O[C@@H](c4ccoc4)[C@]3(C)CCC21 (stereo not given in full) [dihydro-7-desacetyldeoxygedunin] 0
Oc1c(I)cc(I)c2cccnc12 [iodoquinol] 0
CCOc1cccc(C(=O)c2ccc(O)c(O)c2O)c1 [3,4-didesmethyl-5-deshydroxy-3'-ethoxyscleroin] 0
O=C(Cn1ccnc1[N+](=O)[O-])NCCO [etanidazole] 0
CC(=O)OCC(COC(C)=O)OC(C)=O [triacetin] 0
CN(C)CCN(Cc1cccs1)c1ccccn1 [methapyrilene hydrochloride] 0
COc1ccc([C@H]2COc3c(ccc(O)c3OC)C2)c(OC)c1O [duartin (-)] 0
COc1ccc2c(c1)OCc1c-2oc2cc(OC)ccc12 [dehydrovariabilin] 0
NC(=O)N1c2ccccc2C=Cc2ccccc21 [Carbamazepine] 0
COc1c2ccoc2nc2c(OC)c(OCC(O)C(C)(C)O)ccc12 (stereo not given) [evoxine] 0
CC(C)(O)[C@@H]1Cc2cc3ccc(=O)oc3cc2O1 [marmesin] 0
CC[C@H]1OC(=O)[C@H](C)[C@@H](O[C@H]2C[C@@](C)(OC)[C@@H](O)[C@H](C)O2)[C@H](C)[C@@H](O[C@@H]2O[C@H](C)C[C@H](N(C)C)[C@H]2O)[C@](C)(O)C[C@@H](C)/C(=N\OCOCCOC)[C@H](C)[C@@H](O)[C@]1(C)O [roxithromycin] 0
Nc1nc(=O)c2nc(CNc3ccc(C(=O)N[C@@H](CCC(=O)O)C(=O)O)cc3)cnc2[nH]1 [folic acid] 0
CC(=O)N[C@@H](CC(C)C)C(=O)O [acetyl-l-leucine] 0
COc1ccc(-c2cc(=O)c3c(O)cc(O)cc3o2)cc1O [diosmetin] 0
CC(=O)OC[C@@]1(O)C[C@@]23CC[C@@H]4c5ccoc5CC[C@@]4(C)[C@@H]2CC[C@@H]1C3 [cafestol acetate] 0
COc1cc2ccc(=O)oc2c(OC)c1OC [fraxidin methyl ether] 0
CO/N=C(\C(=O)N[C@@H]1C(=O)N2C(C(=O)O)=C(CSc3nc(=O)c(O)nn3C)CS[C@H]12)c1csc(N)n1 [ceftriaxone sodium] 0
O=C(Cc1cccs1)N[C@@H]1C(=O)N2C(C(=O)[O-])=C(C[n+]3ccccc3)CS[C@H]12 [cephaloridine] 0
COc1ccc(-c2coc3c(OC)c(O)ccc3c2=O)cc1 [7-hydroxy-8,4'-dimethoxyisoflavone] 0
O=C(Oc1cc(OC(=O)c2ccccc2)c2c(c1)O[C@H](c1ccc(OC(=O)c3ccccc3)c(OC(=O)c3ccccc3)c1)[C@@H](OC(=O)c1ccccc1)C2)c1ccccc1 [catechin pentabenzoate] 0
NC1(C(=O)O)CCCC1 [cycloleucine] 0
NCCCC[C@H](N[C@@H](CCc1ccccc1)C(=O)O)C(=O)N1CCC[C@H]1C(=O)O [lisinopril] 0
C[C@]12CCC(=O)C=C1CC[C@@H]1[C@@H]2[C@@H](O)C[C@@]2(C)[C@H]1CC[C@]2(O)C(=O)COC(=O)CCC(=O)O [hydrocortisone hemisuccinate] 0
CC(C)(C)NC[C@H](O)COc1nsnc1N1CCOCC1 [timolol maleate] 0
CC(C)CCC[C@@H](C)[C@H]1CC[C@H]2[C@@H]3CC[C@H]4C[C@H](O)CC[C@]4(C)[C@H]3CC[C@]12C [epicholestanol] 0
CCOC(=O)[C@H](CCc1ccccc1)N[C@H]1CCc2ccccc2N(CC(=O)O)C1=O [benazepril hydrochloride] 0
CCOC(=O)OC(C)OC(=O)[C@@H]1N2C(=O)[C@@H](NC(=O)[C@H](N)c3ccccc3)[C@H]2SC1(C)C (stereo not given in full) [bacampicillin hydrochloride] 0
CCCNC(C)C(=O)Nc1ccccc1C (stereo not given) [prilocaine hydrochloride] 0
COc1ccc(CN(CCN(C)C)c2ccccn2)cc1 [Pyrilamine maleate] 0
CC(COc1ccccc1)N(CCCl)Cc1ccccc1 (stereo not given) [Phenoxybenzamine hydrochloride] 0
Nc1ncn([C@@H]2O[C@H](CO)[C@@H](O)[C@H]2O)c(=O)n1 [5-azacytidine] 0
COc1cc2cc3c4cc(OC)c(OC)cc4cc[n+]3c(C)c2cc1OC [coralyne chloride] 0
C=C1c2cccc(O)c2C(=O)C2=C(O)[C@]3(O)C(=O)C(C(N)=O)=C(O)[C@@H](N(C)C)[C@@H]3[C@@H](O)[C@H]12 [methacycline hydrochloride] 0
COC(=O)C1=C(C)NC(C)=C(C(=O)OC)C1c1ccccc1[N+](=O)[O-] [Nifedipine] 0
Cc1cc(OC(=O)c2c(C)cc(O)cc2O)cc(O)c1C(=O)O [lecanoric acid] 0
Cc1cc(NC(=O)C2=C(O)c3ccccc3S(=O)(=O)N2C)no1 [isoxicam] 0
Cc1cc(C(C)(C)CC(C)(C)C)ccc1OCCOCC[N+](C)(C)Cc1ccccc1 [methylbenzethonium chloride] 0
COC(=O)c1c(Cl)c(Cl)c(C(=O)OC)c(Cl)c1Cl [dacthal] 0
Nc1ccc(S(=O)(=O)Nc2ncccn2)cc1 [sulfadiazine] 0
C[C@@H]1CC[C@@]2(OC1)O[C@H]1C[C@H]3[C@@H]4CC[C@H]5C[C@@H](O)CC[C@]5(C)[C@H]4CC[C@]3(C)[C@H]1[C@@H]2C [tigogenin] 0
Oc1cc(O)cc(/C=C/c2ccccc2)c1 [pinosylvin] 0
O=c1c(O)c(-c2ccccc2)oc2ccccc12 [3-hydroxyflavone] 0
CO[C@@]1(NC(=O)C(C(=O)O)c2ccc(O)cc2)C(=O)N2C(C(=O)O)=C(CSc3nnnn3C)CO[C@@H]21 (stereo not given in full) [moxalactam disodium] 0
C#C[C@]1(O)CC[C@H]2[C@@H]3CCC4=CC(=O)CC[C@@H]4[C@H]3CC[C@@]21C [norethindrone] 0
O=C1C(CC[S+]([O-])c2ccccc2)C(=O)N(c2ccccc2)N1c1ccccc1 (stereo not given) [sulfinpyrazone] 0
CC(=O)OC/C=C(C)/C=C/C=C(C)/C=C/C1=C(C)CCCC1(C)C [retinyl acetate] 0
NS(=O)(=O)c1cc2c(cc1Cl)N=C(CSCc1ccccc1)NS2(=O)=O [benzthiazide] 0
COc1cc(C(=O)O)c2c(c1C)OC(=O)c1c(C)cc(O)c(C=O)c1O2 [psoromic acid] 0
CC(=O)Oc1c(C)cccc1C(=O)O [cresopyrine] 0
N=c1ccn2c(n1)O[C@H]1[C@H](O)[C@@H](CO)O[C@H]12 [ancitabine hydrochloride] 0
CS(=O)(=O)c1ccc([C@@H](O)[C@@H](CO)NC(=O)C(Cl)Cl)cc1 [thiamphenicol] 0
C[C@]12C=CC(=O)C=C1CC[C@@H]1[C@@H]2[C@@H](O)C[C@@]2(C)[C@H]1CC[C@]2(O)C(=O)CO [prednisolone] 0
O=C(O)c1cc(=O)c2cccc(O)c2[nH]1 [xanthurenic acid] 0
O=c1cc(-c2cc(O)c(O)c(O)c2)oc2cc(O)cc(O)c12 [hieracin] 0
O=C(O)Cc1ccccc1Nc1c(Cl)cccc1Cl [Diclofenac sodium] 0
C[C@@H]1O[C@@H](Oc2c(-c3ccc(O)c(O)c3)oc3cc(O)cc(O)c3c2=O)[C@H](O)[C@H](O)[C@H]1O [quercitrin] 0
O=C1C=C2CC3(O)COc4cc(O)ccc4C3=C2C=C1O (stereo not given) [brazilein] 0
N[C@H](Cc1ccccc1)C(=O)O [d-phenylalanine] 0
O=c1c(-c2ccc(O)cc2)coc2cc(O)cc(O)c12 [Genistein] 0
O=C1C=CC(=C(c2ccc(O)cc2)c2ccc(O)cc2)C=C1 [rosolic acid] 0
CNC(=C[N+](=O)[O-])NCCSCc1ccc(CN(C)C)o1 [Ranitidine hydrochloride] 0
COc1cc2c(cc1OC)-c1cc3ccc(OC)c(OC)c3c[n+]1CC2 [palmatine] 0

Phenotypic hit, active:
CN(C)CCCN1c2ccccc2CCc2ccc(Cl)cc21 [Clomipramine hydrochloride] 1
O=c1[nH]cc(F)c(=O)[nH]1 [fluorouracil] 1
